Experimental findings from the supplement of paper PMC3334620 are described below.

The full ranking holds about 33,000 sequences; the median of “E-score (-0.5 to 0.5)” is about -0.013, and the highest 2% start at about 0.3. This is one part of the list.

In this experiment the target is T1, Msn1 (UniProt P22148).
T1 sequence: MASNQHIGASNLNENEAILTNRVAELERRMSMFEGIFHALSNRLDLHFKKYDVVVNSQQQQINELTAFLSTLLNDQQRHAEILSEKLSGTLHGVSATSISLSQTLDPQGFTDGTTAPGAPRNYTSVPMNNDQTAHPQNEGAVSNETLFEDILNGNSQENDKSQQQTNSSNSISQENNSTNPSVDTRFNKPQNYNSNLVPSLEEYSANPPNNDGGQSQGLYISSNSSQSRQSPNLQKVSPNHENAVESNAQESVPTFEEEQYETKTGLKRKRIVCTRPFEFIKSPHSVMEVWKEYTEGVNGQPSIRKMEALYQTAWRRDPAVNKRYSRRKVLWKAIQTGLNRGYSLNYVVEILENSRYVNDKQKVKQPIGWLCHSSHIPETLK
Nature of the experiment: PBM E-score (8-mer binding enrichment) (E-score (-0.5 to 0.5)); higher = stronger / more preferred TF binding; most listed sequences are background and not binding sites. To be noted: protein concentration: 200 nM; construct: GST-full length. The essentials:
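Yeast transcription factors carrying a GST tag, as full-length proteins or DNA-binding domains, were produced by PURExpress in vitro transcription/translation. About 100-200 nM protein was applied to universal all-10-mer Agilent arrays, double-stranded by primer extension on fresh or once-stripped slides. Bound protein was detected with fluorescent anti-GST, and scans were normalised with masliner. The Universal PBM Analysis Suite gave each ungapped eight-base word, pooled with its reverse complement, an E-score, a modified Wilcoxon-Mann-Whitney statistic.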
Take ATGTAACG: the “PBM E-score” value is 0.142. In the case of CAGCCAAG it was -0.0807; in that of AACTGGGG, -0.307. Next, ATACTACC: -0.132; AAAGACAC: 0.213. Next, CCCTTTCG: 0.0248; AACTTCAC: 0.0849; AGTTCTAG: -0.00733. For AGGCTAGC, the “PBM E-score” value was -0.00073. In the case of ACAGCAGT it was -0.16; in that of CGTGGGTC, -0.167; in that of AGAGGGAC, 0.115. As for CGAAGCGA, the “PBM E-score” value is -0.0391. Next, AAACTCAA: 0.16; ATGTTTCC: 0.0846; GGCGCAAA: -0.0888. In the case of AGCCCAAA it was 0.156; in that of CCCGCCAA, -0.164; in that of GCCAGAGC, -0.323.

As to CGGGCGGC, the “PBM E-score” value was -0.182.

In the case of CAATCTCC, the “PBM E-score” value is -0.0425. Turning to AACCCGAC, the “PBM E-score” value came out at 0.184. In the case of AAGTGACT it was 0.0348; in that of CCTGGTGA, -0.134. In the case of GAGTATAA it was 0.0596; in that of TCCCTAAA, 0.0496; in that of AGACGGAA, 0.0945. Next, ACGAATTA: 0.032. As for AAAGTGAA, the “PBM E-score” value is 0.142. In the case of ACTCCACA it was -0.103; in that of ATTCGGGC, -0.00679. With CTACTCAC, the “PBM E-score” value was -0.236. In the case of AACGGTTG it was -0.00479; in that of CTAACTCA, -0.179; in that of ATCGAACA, -0.0744.

Take CTAGATTC: the “PBM E-score” value was -0.0654. Next, CGGATGGC: -0.113; GCGTTCGA: 0.0472; ACATTTTA: 0.377. Next, CCCAATGC: -0.207; CCCTGGTC: -0.358; ACCTGAAT: 0.0755.

As to GTAATTTA, the “PBM E-score” value is 0.0198. In the case of GCGCGGAC it was 0.184; in that of CGTTTTAA, 0.064; in that of ACCAAAGG, -0.259. In the case of ATCAAGCA it was -0.116.

Take CTGCGGTC: the “PBM E-score” value is -0.0969.

As to TATGACGA, the “PBM E-score” value was 0.11. Consider AGTCTATG, for which the “PBM E-score” value is -0.0171. In the case of CCTTAAAA it was 0.133; in that of ATCCATAG, -0.0469; in that of CCAGTATA, -0.078. Next, ATGAAGAA: 0.0411; GCTCATAC: -0.0219. In the case of GAAAGCCC it was -0.0697; in that of ATACTGGC, -0.127. With AACGTGGT, the “PBM E-score” value is -0.141. Next, GATCCACC: -0.127.

GAATTCTC: the “PBM E-score” value is 0.0968. In the case of AGAGCCCA it was -0.14; in that of GGCTGGTA, -0.122.

Regarding CCGATTCC, the “PBM E-score” value was -0.0466. Next, AGGTGCAG: -0.191. CCATCGGG: the “PBM E-score” value was -0.00932. In the case of AGTTGTGC it was -0.273. Next, TAAGGAAA: 0.056; CGGTTCGA: 0.0338; AGAGCCGG: -0.174. Next, ATTGTTAC: 0.178; CTGGCAAG: 0.12; CAGTAGAG: -0.17. Consider AGCTTATG, for which the “PBM E-score” value worked out at 0.148. In the case of ATTATCTC it was 0.00375; in that of AAAAGACG, 0.135; in that of ACGTCTGC, 0.00514. Next, ACAAGTTA: 0.153; GGTGCAAC: -0.217; GAGTCGGA: 0.0815. In the case of ACGCCGAG it was -0.00584; in that of AGCTCGCG, -0.0186; in that of CACGACCG, -0.161. For the sequence AGGACGCG, the “PBM E-score” value is 0.259. Consider ACACCTCG, for which the “PBM E-score” value is -0.0586. Next, GAGGACGA: -0.026; CTCCCTGC: -0.26. In the case of ATTGCACG it was 0.0556; in that of CGAAGAAC, 0.0649; in that of AGTCTCTA, -0.0584. Next, AATTAGTA: 0.211.

On to CCGGTAGC, for which the “PBM E-score” value was -0.213. For CTCAGTTA, the “PBM E-score” value came to 0.0335. In the case of CTCTCTCC it was -0.325. Turning to CGGTCGAG, the “PBM E-score” value was -0.111.
